Results published in PMC4336329 (PLoS ONE, 2015).
The campaign covered roughly 310,000 compounds. About 2,200 (0.71%) showed an effect of 50% or more. The effect is printed as a negative number. The list shows a part of the results.

What follows are compounds tested against human ether-à-go-go-related gene (hERG) potassium channel (human, UniProt Q12809) (assay: primary screen, population patch clamp on CHO cells stably expressing hERG).
Sequence of human ether-à-go-go-related gene (hERG) potassium channel (Q12809 whole entry, looked up): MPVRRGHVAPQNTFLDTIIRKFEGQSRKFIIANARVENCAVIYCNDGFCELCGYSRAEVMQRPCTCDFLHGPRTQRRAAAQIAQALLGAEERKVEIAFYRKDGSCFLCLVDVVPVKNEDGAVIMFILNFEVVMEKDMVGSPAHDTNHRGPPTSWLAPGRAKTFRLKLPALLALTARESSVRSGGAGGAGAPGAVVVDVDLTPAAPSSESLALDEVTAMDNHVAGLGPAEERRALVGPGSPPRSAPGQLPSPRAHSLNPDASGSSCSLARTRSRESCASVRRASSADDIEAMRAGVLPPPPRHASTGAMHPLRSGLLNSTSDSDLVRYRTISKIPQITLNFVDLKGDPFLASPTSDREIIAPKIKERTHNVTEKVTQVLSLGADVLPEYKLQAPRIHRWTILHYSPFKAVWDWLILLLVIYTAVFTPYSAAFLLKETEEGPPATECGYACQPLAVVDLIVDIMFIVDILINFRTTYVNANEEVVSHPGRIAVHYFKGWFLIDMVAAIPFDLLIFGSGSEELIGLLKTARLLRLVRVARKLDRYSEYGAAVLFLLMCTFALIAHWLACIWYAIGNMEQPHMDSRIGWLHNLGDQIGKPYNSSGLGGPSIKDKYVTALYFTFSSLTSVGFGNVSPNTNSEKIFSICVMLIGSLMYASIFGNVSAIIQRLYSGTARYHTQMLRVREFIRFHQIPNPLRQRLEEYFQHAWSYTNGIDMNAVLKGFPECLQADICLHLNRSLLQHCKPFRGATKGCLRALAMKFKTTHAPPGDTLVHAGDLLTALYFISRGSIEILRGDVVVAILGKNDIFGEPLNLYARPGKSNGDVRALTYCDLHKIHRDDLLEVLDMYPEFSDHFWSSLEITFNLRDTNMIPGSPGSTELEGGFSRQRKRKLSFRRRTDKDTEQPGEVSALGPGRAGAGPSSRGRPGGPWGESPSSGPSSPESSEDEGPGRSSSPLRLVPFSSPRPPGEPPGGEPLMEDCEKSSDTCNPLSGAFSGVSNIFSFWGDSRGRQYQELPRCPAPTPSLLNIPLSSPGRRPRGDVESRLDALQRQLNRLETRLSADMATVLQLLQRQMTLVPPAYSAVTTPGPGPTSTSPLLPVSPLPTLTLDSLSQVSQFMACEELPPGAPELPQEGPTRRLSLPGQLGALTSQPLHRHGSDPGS

Point of comparison: Nc1nccc(/C=C/c2ccc(Cl)cc2)n1, “hERG current change (%, negative = inhibition) at 1uM” value 11.7%. Against it:
- Cc1ncc(CO)c(CO)c1O.Cl — lower, 9.35%
- CCOc1ccccc1C(=O)NCC(=O)NCC(C)(C)N1CCOCC1 — lower, 2.8%
- Fc1ccc(CSc2nc3ncccc3[nH]2)cc1 — lower, 1.68%
- Cc1cccc(-c2nc3ccccc3c(=O)n2NC(=O)c2cccnc2Cl)c1 — higher, 15.2%
- CCCN1CCN(C(=O)c2cc(COc3ccc4ncccc4c3)on2)CC1 — lower, 7.75%
- CS(=O)(=O)NCCNc1ncc(C(F)(F)F)cc1Cl — higher, 24.8%
- O=S(=O)(/N=C(/Nc1cc(N2CCOCC2)ncn1)c1ccccc1)c1ccccc1 — lower, -6.74%
- Cc1cccc(N(CC(=O)NCc2ccco2)C(=O)CCC(=O)Nc2ccccn2)c1C — lower, 5.36%
- Cc1nnc(SCc2ccc(F)cc2)n1NC/C=C/c1ccccc1 — lower, -0.0029%
- COc1ccc(-c2cc(C(F)(F)F)n3nc(C(=O)N4CCC5(CC4)OCCO5)cc3n2)cc1OC — lower, -3.01%
- CC(C)=C(NC(=O)c1ccccc1)C(=O)Nc1cccc(C)c1 — lower, 9.53%
- Cc1cccc(NC(=O)c2ccc(C3SCC(=O)N3CCc3ccccc3)cc2)c1 (stereo not shown) — lower, 10.1%
- O=C(Nc1nccs1)c1ccc(Br)c(S(=O)(=O)N2CCCC2)c1 — lower, 11.3%
- O=C(CNC(=O)c1ccccc1F)NCCCN1CCCC1=O — lower, 3.21%
- Cc1onc(-c2ccccc2)c1-c1csc(N/N=C/c2ccccc2)n1 — lower, 10.3%
- CCc1c(C)nc2c(OC)cccc2c1SCCC(=O)O — lower, 4.9%
- Cc1cc2nc(/C=C/c3cccnc3)[nH]c2cc1C — higher, 11.8%
- Cc1c(C(=O)O)sc2nc3n(c(=O)c12)CCCCC3 — lower, 10.8%
- COc1cccc(C(=O)O[C@@H]2[C@H](Cc3ccccc3)NS(=O)(=O)[C@H]3C[C@@H]4C=C[C@]23O4)c1 — lower, 10.9%
- CCNc1nc(SCC(=O)Nc2ccc(Cl)c(Cl)c2)nc(N(C)C)n1 — higher, 14%
- CC(=O)Nc1ccc(S(=O)(=O)N2CCN(C(=O)c3cccnc3)CC2)cc1 — lower, 8.74%
- CCN1CCN(c2ccc(N=Cc3ccccc3O)cc2)CC1 — lower, 10.1%
- COC(=O)Cn1c(CN(C)Cc2ccccc2)nc2c1c(=O)n(C)c(=O)n2C — higher, 13.9%
- N#C/C(=C\c1ccccc1[N+](=O)[O-])C(=O)NCc1ccccc1 — lower, 7.52%
